We go through 55 compounds from article PMC4336329 (PLoS ONE, 2015).

In all, about 310,000 compounds went through this assay and about 2,200 (0.71%) showed an effect of 50% or more. Effects have a minus sign here. Some of the results follow.

In this experiment the target is human ether-à-go-go-related gene (hERG) potassium channel (human, UniProt Q12809). The experiment in a line: primary screen, population patch clamp on CHO cells stably expressing hERG.
human ether-à-go-go-related gene (hERG) potassium channel, sequence (Q12809 whole entry, looked up): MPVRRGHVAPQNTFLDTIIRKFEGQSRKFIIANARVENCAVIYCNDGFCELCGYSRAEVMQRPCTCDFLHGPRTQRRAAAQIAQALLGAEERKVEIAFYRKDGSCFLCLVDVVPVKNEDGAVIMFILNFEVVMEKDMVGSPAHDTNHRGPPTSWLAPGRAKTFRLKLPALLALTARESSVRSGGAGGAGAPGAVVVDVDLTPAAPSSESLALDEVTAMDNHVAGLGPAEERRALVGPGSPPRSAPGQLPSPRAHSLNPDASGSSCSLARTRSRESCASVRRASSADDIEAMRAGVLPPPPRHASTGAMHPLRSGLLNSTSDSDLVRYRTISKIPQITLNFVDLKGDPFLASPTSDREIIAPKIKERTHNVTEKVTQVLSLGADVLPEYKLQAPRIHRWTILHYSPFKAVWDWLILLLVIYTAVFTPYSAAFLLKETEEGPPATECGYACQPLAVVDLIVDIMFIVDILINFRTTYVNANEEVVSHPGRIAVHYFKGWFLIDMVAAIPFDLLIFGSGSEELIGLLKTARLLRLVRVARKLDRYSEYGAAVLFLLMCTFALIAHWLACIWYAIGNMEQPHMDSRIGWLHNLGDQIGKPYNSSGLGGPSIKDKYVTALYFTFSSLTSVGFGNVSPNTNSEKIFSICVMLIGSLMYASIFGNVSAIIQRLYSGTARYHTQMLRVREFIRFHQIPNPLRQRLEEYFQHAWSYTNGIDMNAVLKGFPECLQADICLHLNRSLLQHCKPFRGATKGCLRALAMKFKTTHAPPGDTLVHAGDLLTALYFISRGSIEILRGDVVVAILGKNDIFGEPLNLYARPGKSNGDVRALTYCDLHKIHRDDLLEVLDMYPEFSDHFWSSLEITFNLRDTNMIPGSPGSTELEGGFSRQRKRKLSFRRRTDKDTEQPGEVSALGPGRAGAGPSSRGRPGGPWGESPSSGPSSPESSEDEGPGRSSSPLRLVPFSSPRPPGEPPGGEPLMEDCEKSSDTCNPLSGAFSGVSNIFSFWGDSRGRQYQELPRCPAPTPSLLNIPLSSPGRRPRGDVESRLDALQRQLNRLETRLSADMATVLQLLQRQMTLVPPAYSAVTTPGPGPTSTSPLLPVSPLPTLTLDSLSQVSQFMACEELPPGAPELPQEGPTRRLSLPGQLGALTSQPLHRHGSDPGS
Turning to `O=C(COc1ccc(Cl)cc1Cl)Nc1ccc(-c2ccc(N3CCOCC3)nn2)cc1`, the “hERG current change (%, negative = inhibition) at 1uM” value is reported as 14.5%.
`Cc1c(O)c(CN2CCCC2)cc2c3c(c(=O)oc12)CCC3`: the “hERG current change (%, negative = inhibition) at 1uM” value is 15.9%.
With `Cc1sc(NC(=O)c2ccccc2F)c(CN2CCCCC2C)c1C` (stereo not shown), the “hERG current change (%, negative = inhibition) at 1uM” value was found to be 3.89%.
As to `COc1ccc(-c2nnc(SCCC(=O)O)n2-c2ccccc2)cc1OC`, the “hERG current change (%, negative = inhibition) at 1uM” value is reported as 3.26%.
For `CCc1ccccc1OCCCN1CCCC1.O=C(O)C(=O)O`, the “hERG current change (%, negative = inhibition) at 1uM” value was 3.26%.
Turning to `Cn1c(=O)c([N+](=O)[O-])c(NCCCn2ccnc2)c2ccccc21`, the “hERG current change (%, negative = inhibition) at 1uM” value is listed as 16.6%.
Under `O=C(CSc1n[nH]c(-c2ccccc2)n1)c1ccc(O)c(O)c1` stands 1.7%.
With `COC(=O)CC1SC(=O)NC1=Nc1ccccc1` (stereo not shown), the “hERG current change (%, negative = inhibition) at 1uM” value worked out at 9.45%.
Regarding `O=C(NNc1nc(=O)c2cccnc2s1)c1ccccc1O`, the “hERG current change (%, negative = inhibition) at 1uM” value was 13.5%.
For `CN(CC(=O)NCc1ccc(F)cc1)CC(=O)Nc1ccc(Cl)c(C(F)(F)F)c1`, the “hERG current change (%, negative = inhibition) at 1uM” value amounted to 8.44%.
Consider `O=C(Nc1nc2ccc(Br)cc2s1)c1ccco1`, for which the “hERG current change (%, negative = inhibition) at 1uM” value amounted to 13.6%.
Take `COc1ccc(NC(=O)C(Cc2ccccc2)n2cccc2)cc1` (stereo not shown): the “hERG current change (%, negative = inhibition) at 1uM” value is 6.16%.
Under `CC(C)[C@H](NC(N)=O)C(=O)NCCc1ccc(Cl)cc1` stands 8.08%; under `CC1=C(C(=O)OCc2ccc(C)cc2)C(c2ccc(O)c([N+](=O)[O-])c2)NC(=O)N1` (stereo not shown), 3.54%.
`O=C(Nc1ccc(Cl)cc1)Nc1ccccc1CC[N+](=O)[O-]`: the “hERG current change (%, negative = inhibition) at 1uM” value is 15.9%.
On to `CN(CC(=O)Nc1ccc(F)c(F)c1F)C(=O)CCc1nc2sc3c(c2c(=O)[nH]1)CCCC3`, for which the “hERG current change (%, negative = inhibition) at 1uM” value amounted to 3.41%.
Turning to `O=C(Nc1ccccc1)Nc1nnc(Cc2ccc([N+](=O)[O-])cc2)s1`, the “hERG current change (%, negative = inhibition) at 1uM” value turned out to be 5.51%.
With `Cn1nc(C(F)(F)F)c(-c2ccc(Br)cc2)c1NC(=O)CSCC(=O)O`, the “hERG current change (%, negative = inhibition) at 1uM” value is reported as -3.38%.
Regarding `CC(C)Oc1ccc(CNC(=O)c2ccc3c(c2)N(C)CCS3)cc1`, the “hERG current change (%, negative = inhibition) at 1uM” value came out at 3.61%.
Take `CC(=O)NN1C(=O)c2ccccc2NC1c1cccc([N+](=O)[O-])c1` (stereo not shown): the “hERG current change (%, negative = inhibition) at 1uM” value is 6.34%.
Under `COc1cc(/C=C(\NC(=O)c2ccccc2)C(=O)Nc2cccc(O)c2)c([N+](=O)[O-])cc1OC` stands 3.3%; under `CCc1ccccc1NS(=O)(=O)c1cc2c(cc1C)n(C)c(=O)c(=O)n2C`, 2.08%.
In the case of `CC(C)c1ccc(NC2CCCN(C(=O)c3n[nH]c4c3CCC4)C2)cc1` (stereo not shown), the “hERG current change (%, negative = inhibition) at 1uM” value is 4.97%.
In the case of `Oc1ccc(Br)cc1CN1CCN(c2ccccc2)CC1`, the “hERG current change (%, negative = inhibition) at 1uM” value was determined as 16.6%.
Under `CCn1cc(CN2CCN(Cc3ccc(OC)c(C)c3C)C(CCO)C2)c(C)n1` (stereo not shown) stands 13.7%; under `O=C(NCCNC(=O)c1cc(OCC(F)(F)F)ccc1OCC(F)(F)F)Nc1ccc(OC(F)(F)F)cc1`, 9.81%; under `COc1ccc(Cc2nnn(CC(=O)O)n2)cc1`, 5.71%.
Under `O=C(Nc1ccc(F)cc1)c1ccc2c(=O)n(CC3CCCO3)c(=S)[nH]c2c1` (stereo not shown) stands 17.9%; under `COc1ccc(C2c3ccc4ccccc4c3Oc3ncn4nc(Cc5ccccc5)nc4c32)cc1OC` (stereo not shown), 11.1%; under `Cc1cccc(NC(=O)c2cc(-c3ccco3)nc3ccccc23)n1`, 9.09%.
Regarding `CC(=O)c1cccc(NC(=O)CN(C)S(=O)(=O)c2cccc3nsnc23)c1`, the “hERG current change (%, negative = inhibition) at 1uM” value was 4.29%.
For the compound `O=C(NCC1CC1)Nc1ccc(Cl)cc1`, the “hERG current change (%, negative = inhibition) at 1uM” value was 16.2%.
As to `CN(C)S(=O)(=O)c1cccc(C(=O)NCC2(N3CCOCC3)CCCCC2)c1`, the “hERG current change (%, negative = inhibition) at 1uM” value was determined as 4.99%.
Next, `Cc1nc2ccccc2c2oc(C(=O)NC3CC3)cc12`: 9.53%; `O=C(CSc1nnc(Cn2nnc(-c3ccccc3)n2)n1-c1ccccc1)Nc1ccc(F)cc1`: 6.77%.
Turning to `CCOc1ccc(C(=O)Nc2c3c(nn2-c2ccc(C)cc2)CS(=O)C3)cc1OCC` (stereo not shown), the “hERG current change (%, negative = inhibition) at 1uM” value came to 12.8%.
Under `Cc1oc(-c2ccccc2F)nc1CS(=O)(=O)CC(=O)NC1CCCC(C)C1C` (stereo not shown) stands 5.89%.
As for `O=C(CN1C(=O)COc2ccccc21)N(Cc1ccc2c(c1)OCO2)CC1CCCO1` (stereo not shown), the “hERG current change (%, negative = inhibition) at 1uM” value was determined as 3.66%.
With `Cc1ccc(N(C)S(=O)(=O)c2nnc(NC(=O)c3ccco3)s2)cc1`, the “hERG current change (%, negative = inhibition) at 1uM” value is recorded as 10.7%.
Under `O=C(c1cc2cc(F)ccc2[nH]1)N1CCN(c2ccc(F)cc2)CC1` stands -4.71%; under `COc1cccc(C2CC3C(=O)C=CC2N3Cc2ccccc2)c1` (stereo not shown), 9.39%; under `CCOC(=O)/C=C1/SCC(=O)N1CC(=O)Nc1cccc(F)c1`, 8.36%.
`O=S(=O)(Nc1nc(SCc2ccc(Cl)cc2)n[nH]1)c1ccc(F)cc1`: the “hERG current change (%, negative = inhibition) at 1uM” value amounted to 9.11%.
Turning to `COc1ccc(CNC(=O)[C@H](C)NC(=O)[C@@H]2Cc3ccccc3CN2)cc1`, the “hERG current change (%, negative = inhibition) at 1uM” value is 18.1%.
Consider `COCCCNC(=O)CNC(=S)N(Cc1ccccc1)Cc1cccnc1`, for which the “hERG current change (%, negative = inhibition) at 1uM” value was determined as 6.09%.
Regarding `CC(C)(C)CC(=O)Nc1nnc(CCc2ccccc2)s1`, the “hERG current change (%, negative = inhibition) at 1uM” value worked out at 11%.
In the case of `C=CCc1ccc(OCCOCCOc2ccccc2[N+](=O)[O-])c(OC)c1`, the “hERG current change (%, negative = inhibition) at 1uM” value is listed as -2.96%.
Under `CCOC(=O)N1CCC(C(=O)NNC(=O)c2ccc(Cl)cc2Cl)CC1` stands 20.3%; under `CC1CCCC(N2CCN(C(=O)c3ccc([N+](=O)[O-])cc3)CC2)C1.O=C(O)C(=O)O` (stereo not shown), -67.3%.
On to `COc1ccc(NC(=O)C(=O)NCC(c2ccco2)N2CCc3ccccc3C2)cc1OC` (stereo not shown), for which the “hERG current change (%, negative = inhibition) at 1uM” value was -28%.
As for `CCn1cc(C(=O)NCC2CCCO2)c(=O)c2cc(S(=O)(=O)N(C)C)ccc21` (stereo not shown), the “hERG current change (%, negative = inhibition) at 1uM” value is reported as 8.9%.
Consider `O=C(COc1ccc2c3c(c(=O)oc2c1)CCC3)NCCCN1CCCC1=O`, for which the “hERG current change (%, negative = inhibition) at 1uM” value is on record as 16.2%.
Under `CC(C)CC1C(C#N)=C(N)Oc2n[nH]c(-c3ccccc3)c21` (stereo not shown) stands 10.4%; under `O=C(O)/C=C/c1ccc2c(-c3ccccc3)onc2c1`, 6.66%; under `Nc1ccc([As](=O)(O)O)cc1`, 10.5%.
